Assay results reported in the supplement of paper PMC10126150.
Values marked as one replicate rest on one cluster of the flow cell; about a third of the high ones do not repeat.

tested on: ATP; assay: switch fluorescence ratio, 500 uM ATP over buffer (Cy3 cluster intensity, sum of 5 cycles each) (fold (ratio)); higher = stronger signal-on switching upon ATP binding; sequences stand for … in TCGTCGGCAGCGTCAGATGTGTATAAGAGACAGTTTTTTTTTTTTTTTTTTTTTTTTT…TC; settings: aptamer strand: ATP DNA aptamer (quencher-CACCTGGGGGAGTATTGCGGAGGAAGG + anchor), 100 nM annealed; ATP concentration: 500 uM; one replicate
How it was run: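 After annealing to 100 nM quencher-labelled ATP aptamer, Cy3-labelled switching-strand clusters on a modified Illumina MiSeq flow-cell were imaged in selection buffer. A second image followed after 15 min with 500 uM ATP at 22 °C, and five such buffer/ATP cycles were done, each separated by NaOH stripping and re-annealing. The fluorescence ratio, averaged per switch-domain sequence, is summed target-cycle over summed buffer-cycle Cy3 intensity per cluster, with clusters outside 100-1000 RFU excluded.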
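Note: ATP exposure 15 min at 22 °C before imaging.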

Sequence	switch fluorescence ratio
TACATGGCTT	1
TACATTAGTA	0.991
TACATTCACA	1.26
TACATTCCT	1.61
TACATTCGT	1.07
TACATTTCTT	0.994
TACCAAGTCA	1.02
TACCACATAT	1.08
TACCATAATA	1.37
TACCATACAA	1.26
TACCATGGTC	1.02
TACCCACCGT	1.36
TACCCATAGC	1.11
TACCCATATT	0.999
TACCCCACTC	1.22
TACCCCCGA	1.85
TACCCGTAGA	1.06
TACCCTAAAA	1.03
TACCCTTATC	1.09
TACCGAAATT	0.992
TACCGAACGG	1.04
TACCGAGGGG	1.05
TACCGTTTCG	1.01
TACCTACTAA	1.25
TACCTCAATG	1.06
TACCTGCTTC	1.04

Sequence	switch fluorescence ratio
TACCTGGAAA	1.04
TACCTGTGGG	1.42
TACGAAAGT	1.04
TACGAAGAGG	1.03
TACGAATGAT	1
TACGAGAGCG	1.04
TACGAGATGG	1.01
TACGCAGGAT	1.15
TACGCCCGGA	1.15
TACGCGACC	1.23
TACGCGCAGA	1.04
TACGCGGAAT	0.988
TACGCGGGAC	1.05
TACGCGGGAT	1.04
TACGCTCGAC	1.77
TACGGAGATC	0.992
TACGGCGCAA	1.17
TACGGGAGTT	0.987
TACGGGCAAT	2.74
TACGGGGGGA	1.01
TACGGGTTAC	0.985
TACGGTACT	1.56
TACGGTAGAC	1.15
TACGTAACTG	1.3
TACGTAGAAA	1.15
TACGTATAAG	1.04

Sequence	switch fluorescence ratio
TACGTATTGT	1.11
TACGTCCATG	1
TACGTGCTCG	1.09
TACGTTAGAG	1.08
TACGTTCTTA	0.984
TACGTTGGCT	1.02
TACTAAAGTG	1
TACTAAGTTT	1.07
TACTAATAA	1.02
TACTACAGGT	1.08
TACTATTG	1.04
TACTCAAGTT	1.04
TACTCATCC	1.03
TACTCATTAT	1.02
TACTCTCTCG	0.955
TACTGACGGC	1.39
TACTGAGGGC	1.06
TACTGCACAT	1.34
TACTGCGGTT	1.01
TACTGGACGG	1.23
TACTGTATGC	1.12
TACTGTTCCG	0.995
TACTTAGAGA	1.08
TACTTCACCG	1.41
TACTTCAGGG	0.986
TACTTGAGCT	1.01

Sequence	switch fluorescence ratio
TACTTTAAAG	1.01
TACTTTGTTA	1.04
TAGAAAATCT	1
TAGAAAATGA	0.976
TAGAAAGGAA	1.01
TAGAAGAGGG	0.98
TAGACACAAC	1.11
TAGACATGGG	1.1
TAGACCAGCG	0.991
TAGACCGAAC	1.5
TAGACCTCGC	1.01
TAGAGAGCTA	1.1
TAGAGAGTGT	0.985
TAGAGCCGGT	1.02
TAGAGCTCCG	1.04
TAGAGGAATT	0.994
TAGAGGATCT	1.01
TAGAGGGACC	1.02
TAGAGTAAGT	0.95
TAGAGTAGGT	1.04
TAGAGTCGGA	0.986
TAGATAAACA	1.01
TAGATAAAGA	0.968
TAGATAGACG	0.966
TAGATATCGA	0.985
TAGATCAGTC	1

Sequence	switch fluorescence ratio
TAGATCCGGC	0.961
TAGATCGGGC	0.976
TAGATGCAAA	1.01
TAGATTAACT	0.977
TAGATTGTGA	0.965
TAGATTGTGG	0.992
TAGATTTGCT	0.971
TAGCAACTC	1.71
TAGCAATTGT	1.03
TAGCACGTCG	1.05
TAGCAGGCTT	0.999
TAGCAGGGCT	0.975
TAGCATAGGA	1
TAGCATAGT	1.64
TAGCATCAGA	1.02
TAGCCATACG	1.35
TAGCCCCACT	0.996
TAGCCGGTCA	1
TAGCCTATCG	0.996
TAGCCTGACT	1.16
TAGCCTGG	0.972
TAGCCTTCGA	1.07
TAGCGACGCG	1
TAGCGCTTAG	0.991
TAGCGTACAG	1.08
TAGCGTCGTT	0.962

Sequence	switch fluorescence ratio
TAGCGTGGC	0.952
TAGCTAACGG	1.05
TAGCTAGTAG	1.01
TAGCTGATCC	1.07
TAGCTGGA	1.03
TAGCTGTTTG	0.99
TAGCTTTGTA	0.986
TAGGAATAGC	1.01
TAGGAATGTG	1.01
TAGGACACTG	1.02
TAGGACCGGT	1.05
TAGGAGTCG	1.06
TAGGAGTCGG	0.983
TAGGATACAG	1.01
TAGGATCTTG	0.984
TAGGCAGGTT	0.999
TAGGCATTAA	1.02
TAGGCCAAGA	1.03
TAGGCCTGAC	1.26
TAGGCTGAG	1.01
TAGGCTTTTA	1.02
TAGGGAACC	1.94
TAGGGATTAA	1.01
TAGGGCAAAA	1.02
TAGGGCCTGG	1.02
TAGGGCTGT	0.973

Sequence	switch fluorescence ratio
TAGGGGACGC	1.01
TAGGGGGACA	0.989
TAGGGGGGA	1
TAGGGGTATT	0.966
TAGGGGTCA	1.02
TAGGGTCCCG	0.978
TAGGGTGATA	1.02
TAGGGTTGAG	1.01
TAGGGTTTAT	1.03
TAGGTACTTT	1
TAGGTCAAT	1.02
TAGGTCACTT	0.999
TAGGTCCAGT	0.983
TAGGTCTTAG	0.978
TAGGTGATGG	0.983
TAGGTGGTGG	0.948
TAGGTTCATG	1.01
TAGGTTGGGA	1.02
TAGGTTTTAC	0.982
TAGTAAACGG	1.02
TAGTAAGGTA	0.986
TAGTAGCATC	1.11
TAGTAGCGGT	0.994
TAGTAGGAAC	0.994
TAGTAGGACG	1
TAGTAGTTTG	0.999

Sequence	switch fluorescence ratio
TAGTATGGCA	1.03
TAGTATTGAA	1
TAGTCAAATG	0.979
TAGTCAACTT	1.01
TAGTCAAGTC	1.05
TAGTCCGT	1.02
TAGTCCGTGG	1.16
TAGTCGAACG	1
TAGTCGAATT	1.01
TAGTCGGAGG	1.06
TAGTCGTCAG	0.977
TAGTGAATTA	0.995
TAGTGACGGC	1.05
TAGTGCGTA	0.931
TAGTGCGTTT	0.996
TAGTGGCGGG	1.02
TAGTGGGGAG	0.959
TAGTGGGTAC	1.01
TAGTGGGTGC	0.983
